According to PMC4242493:
The list shows a part of the results. The list includes weakly bound sequences.

Biological target: MaxL homodimer (UniProt P61244)
Test: universal protein-binding microarray (PBM)
Conditions: PBS-based mixture, 10 nM His-tagged protein dimer, 2% milk, 200 ng/uL BSA, 50 ng/uL salmon testes DNA, 0.02% TX-100; detection with Alexa 488 anti-His …; high values mean tight binding; most listed sequences are background and not binding sites; double strand, one strand shown

Chain of UniProt P61244 (P61244 whole entry): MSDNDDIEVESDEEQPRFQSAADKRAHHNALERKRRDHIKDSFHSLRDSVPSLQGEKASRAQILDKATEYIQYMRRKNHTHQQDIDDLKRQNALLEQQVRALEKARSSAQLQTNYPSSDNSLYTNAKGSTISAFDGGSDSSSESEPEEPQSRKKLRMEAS

Sequence | binding signal (normalized occupancy)
TCCAAGCA | 0.0737
AGCCCAAT | 0.0746
ATAAGACC | 0.0818
CAGAAGCA | 0.0742
CGCTCATC | 0.0725
CCCTCCTC | 0.0734
ACGCTCGG | 0.0694
CACTTCGG | 0.0755
GTCCAGCA | 0.0732
GACCCGCA | 0.0789
AGCCCTGC | 0.0649
GAACGCAC | 0.0789
ACGCAGGG | 0.0718
GGGAGGAC | 0.0747
AAGTCCGC | 0.0701
ATCGGATA | 0.0842
CCTGAGTC | 0.0706
AGTACTGA | 0.0748
AATCCACT | 0.0739
CGTCATAG | 0.075
AGTGTCAA | 0.0751
ATCCGCTG | 0.0744
CCCGGGAA | 0.0686
AGTCCTAG | 0.0729
AAGTATCG | 0.0757

Sequence | binding signal (normalized occupancy)
ATTATCAA | 0.0805
CGCTATAG | 0.0755
CTACTCGC | 0.0773
AACCTGCA | 0.0719
ACATAAGC | 0.0755
AGTCACAC | 0.0886
GCATTTAC | 0.0757
CGATCATC | 0.0783
AGATGTGC | 0.0825
ATTCCTCG | 0.0818
GTCAGGTA | 0.0771
ATTGAAGA | 0.0753
ACAAAAGT | 0.0714
CCCACAGC | 0.0741
AAATGAAC | 0.0771
AAGTGTCA | 0.076
TCTGATAA | 0.0824
ATTCAATA | 0.0791
ATGGACAT | 0.0812
AGAGACCC | 0.0694
AAACAAGC | 0.0657
CACGCAAC | 0.0776
ATTTCCTG | 0.0715
CCACCAAG | 0.072
CCCTATAG | 0.0769

Sequence | binding signal (normalized occupancy)
GACTTACA | 0.0731
TAATAATA | 0.0881
GACACTCA | 0.0738
CCGTTATC | 0.079
GGAAAGTA | 0.0717
CCTCACGA | 0.0765
ACAGTAGT | 0.0739
CGAAGCAC | 0.0756
CACCAGTA | 0.0795
CGGCCTCA | 0.0713
ACCAGTTA | 0.0761
AAGGTAGT | 0.0772
GAGGTTCA | 0.075
TGATATCA | 0.0873
GCGACCCC | 0.0803
AGGGGATA | 0.0873
AGGAGTCA | 0.0758
ATTTCATC | 0.0789
TCAAAACA | 0.0736
GAGAGAAC | 0.0873
TACCCGAA | 0.0768
AGCCCAGA | 0.0724
ATAACCCC | 0.0892
GGACGAGA | 0.0695
AAGGCGGC | 0.0727

Sequence | binding signal (normalized occupancy)
CGTTCCGA | 0.0709
AACTGGCA | 0.0713
CCCGGAAG | 0.0703
ACGGACGG | 0.0701
GCCTAAGC | 0.0703
CTCAAAAA | 0.0744
CCAAGATA | 0.0821
CAATCTTA | 0.0779
CCAAAGGC | 0.069
AAGAGTAA | 0.0792
TCGCATCA | 0.0786
CTTCCCTA | 0.071
GAGTGGCC | 0.073
GGCTGCAC | 0.0711
AGCTCCCT | 0.0725
ATTTACTC | 0.0738
CTGGACGC | 0.0708
CTGGATGC | 0.0706
CCTCCGGA | 0.0691
TAAATGCA | 0.0733
GTGCCCAA | 0.0767
ACAATGGG | 0.0783
TACGACGA | 0.0716
AGCAGCGC | 0.071
GACGAGCA | 0.0723

Sequence | binding signal (normalized occupancy)
ACTAGGAT | 0.0741
GCAGGGTA | 0.0757
AGGGGAAA | 0.0729
AACAGTCG | 0.073
AAAATCCT | 0.0702
CGACGGTC | 0.0719
CAGCAAAG | 0.068
ACCCTAGA | 0.0786
ACGGCCGG | 0.0705
AACGCGCA | 0.078
ACAGACGG | 0.0744
CACAATCC | 0.0745
GCTTTTCA | 0.0704
GTCCGAAC | 0.0707
ACAATTGT | 0.0763
CGTAATAC | 0.0758
CGCCTGGC | 0.0759
TCAACCAA | 0.0742
ACCGAGTG | 0.0736
GGGGTTCA | 0.0782
CGGCATTA | 0.0721
CCTTTCAG | 0.0706
CAGCCCGC | 0.0671
ATCTGGAG | 0.0735
CTATACTC | 0.0784

Sequence | binding signal (normalized occupancy)
AGGATCTC | 0.0765
ATTCCCCA | 0.0789
CATCAAAG | 0.0738
ACGCTCTA | 0.0826
ACGGCGTA | 0.0728
ACCTTGGA | 0.0711
TATCTTCA | 0.0764
GTGGAAAA | 0.0879
AGGATTTC | 0.0737
ACTGTTTG | 0.0779
CGCCTCGA | 0.0668
TCAGCGCA | 0.0738
CCGAAATC | 0.073
CCGGATGC | 0.0722
CATTACCA | 0.0833
GGCCCCCA | 0.0743
ATCTGCAC | 0.0822
CGCTGGTC | 0.0727
GCCGCCGC | 0.0692
CCGGGATC | 0.0724
AGGTTGCG | 0.0716
ACACAGAG | 0.0759
CCTTGAAG | 0.0754
GGTAAAAA | 0.0729
TAACGCCA | 0.0773

Sequence | binding signal (normalized occupancy)
GGTCCTTA | 0.0704
ACATGTAT | 0.102
AGGCGCTA | 0.0711
GCATTTTA | 0.0806
CATATGTA | 0.0972
GTATCGAA | 0.0739
ACCGCAAG | 0.0725
AACATACT | 0.0837
ATCAGCCA | 0.0757
AAAATCAA | 0.0734
CAGCAGCA | 0.0747
CGTAGTGC | 0.0696
CACTCCCA | 0.0792
CACTTGCC | 0.0771
ACGCAAGT | 0.0755
CCTTCCGC | 0.0677
CCACGGAA | 0.0752
GAATGGCC | 0.0739
GGGGCGCA | 0.0759
ATCGCTTA | 0.0749
CGGCTTCA | 0.0678
CTTAAACC | 0.0746
GTACATAA | 0.079
ACAAAAGC | 0.0695
GGTCTCTA | 0.0745

Sequence | binding signal (normalized occupancy)
CATCCGAA | 0.0798
CCTAGCAC | 0.0765
CAGTTTAC | 0.0779
CGTCTTAA | 0.0682
GATGGACC | 0.0737
ATACGAAG | 0.0749
TCGGGTCA | 0.0737
AACTCGTA | 0.0764
AACCCATC | 0.0817
TCGCCGCA | 0.0715
AACTGGTA | 0.0716
CCCAAAGC | 0.0696
CAAATGTC | 0.0771
AGTCTTAG | 0.0721
AGGTGAAA | 0.0675
CTTGAGAA | 0.0806
AGACCAGG | 0.074
GCTACGGA | 0.0738
AACTTGCC | 0.0757
AGTCGTCA | 0.0763
GAGATCAA | 0.075
CACGTATC | 0.0863
AACTTCTT | 0.0704
CACCTGAG | 0.0741
ACGTTAAC | 0.0835

Sequence | binding signal (normalized occupancy)
ACATGAAT | 0.0965
ACAAATAG | 0.0784
ACATCACG | 0.0884
ATGTCGAA | 0.0778
CGGACCCA | 0.0773
AATGGCGA | 0.0765
TCTGGAAA | 0.0735
AACCATGG | 0.0757
CGACGCTC | 0.0754
CCAGACGC | 0.0713
CCATAAAC | 0.0754
AATGGGCG | 0.0783
GCGCACGC | 0.0964
ACCATCGA | 0.0777
ATAAAATG | 0.0774
CCCGGTGA | 0.0716
AGGACCCC | 0.0725
GAGACTGA | 0.0697
AAGTCCGG | 0.0654
ATAATATA | 0.0867
CGTCAATA | 0.0761
GAGCAGTA | 0.0709
GCAGAGGA | 0.0715
ACAAGGGG | 0.0766
CGTGCCGA | 0.0758

Sequence | binding signal (normalized occupancy)
GTAGTAGA | 0.0725
GAACGAGA | 0.0786
GCGTTGAA | 0.0796
CGCGAGGC | 0.0797
CAGACTCG | 0.0745
TAAAACGA | 0.0742
TATCCGCA | 0.0786
CGGAAATC | 0.066
GGGGTAAA | 0.0797
CTCTGCAG | 0.0684
ATCAAGGC | 0.0752
ACTTGTAA | 0.081
CACGGTGC | 0.0898
ATTGCTTC | 0.0755
AACACTTC | 0.0766
ATTTACCA | 0.0786
ACTAAATG | 0.0762
AACACCAA | 0.0737
GAATAAGC | 0.076
AGTCACTA | 0.0739
ACTTAAGT | 0.0703
CCGAAAAA | 0.0734
GGGGCGAC | 0.0713
ACACTTGG | 0.0807
ACGGCGTC | 0.0722

Sequence | binding signal (normalized occupancy)
GGCACATA | 0.0876
AAATCGAG | 0.0683
CATATAAC | 0.0843
AAACCAGC | 0.0715
AACGGCTA | 0.0659
CCGCAGAG | 0.0718
CGAGGAAG | 0.0707
GTAAAGAA | 0.0758
ACCCTCAA | 0.0718
CGCTGGAA | 0.0732
CTTTCGAC | 0.0751
AAGTTATG | 0.0839
AGTGACTG | 0.0713
ATGCGCAG | 0.0789
ACGCGGAC | 0.083
AACACGCC | 0.0909
AGCCCGCT | 0.0701
CAATGGAG | 0.0742
AGTCCACA | 0.0765
ATAACAAG | 0.075
AGACGTAC | 0.0758
ACCCGCCA | 0.0756
GGTTGCGA | 0.0696
TACGGTGA | 0.0721
AGTTTCCA | 0.0748

Sequence | binding signal (normalized occupancy)
TCAAGCCA | 0.0742
CAGCTAAA | 0.0704
GGGAAACA | 0.0786
TCCAGCCA | 0.0775
ACGATCAA | 0.0748
AAGGTGGA | 0.0747
AGACGATG | 0.0739
CATGGGTA | 0.0914
ATAGGCAT | 0.0877
ACACAATC | 0.0756
ACGAGCTC | 0.0759
AGCCGAAT | 0.0749
CATCGAGA | 0.0768
AAATACGA | 0.0784
CCTTACTA | 0.0759
CATCGGAC | 0.0717
ATTGCGCC | 0.0735
TCAAGTGA | 0.0721
TAATAGTA | 0.0774
CCAACGGG | 0.0725
AAATTAAC | 0.0725
GTGCTTCA | 0.0817
CCTGTACA | 0.0767
AGCATATG | 0.103
ATCTTAAG | 0.0746

Sequence | binding signal (normalized occupancy)
GTAAGAAA | 0.0769
AATGCGCT | 0.0752
AGGCATAA | 0.0727
TACGGGCA | 0.0723
GCCTCTAA | 0.0775
AAAGGGCC | 0.0677
CCGACGGC | 0.0682
AGGATCAT | 0.076
AACAAATC | 0.0773
CAACAATC | 0.0759
AATACTAC | 0.078
CTTCACGA | 0.078
GGCATTGA | 0.0781
GCCTAACC | 0.0773
CCGGAGCA | 0.0692
ACTGGATG | 0.0719
ATCGAGCC | 0.0724
AAATTCCG | 0.0713
ATACAGTG | 0.0799
GTATAGGA | 0.078
AAACCGGT | 0.0705
GATAAATA | 0.0806
GGACCTAA | 0.0706
ATGGCAGA | 0.0796
CCACTACC | 0.0743

Sequence | binding signal (normalized occupancy)
GACGGCGA | 0.0752
AAAGAACC | 0.0707
TCTAATAA | 0.0821
ATGATGCC | 0.0771
AGCCACAT | 0.0918
GCAATGAC | 0.0772
TGTACACA | 0.0795
AAGGCAGC | 0.0677
CGACTTAG | 0.0726
ACGAATAC | 0.0755
AGGAATAC | 0.0761
ATCTTTGC | 0.0728
CATCCATC | 0.0861
GCGAAACC | 0.072
GAAAGGAA | 0.071
CCATGAGA | 0.0896
CCGTATCG | 0.0716
ACGGTGAC | 0.08
CCCTATAA | 0.0822
